# Reference: PMC8639510
# Amino acid sequences for entries named in this document (tags omitted).
# UniProt Q44445: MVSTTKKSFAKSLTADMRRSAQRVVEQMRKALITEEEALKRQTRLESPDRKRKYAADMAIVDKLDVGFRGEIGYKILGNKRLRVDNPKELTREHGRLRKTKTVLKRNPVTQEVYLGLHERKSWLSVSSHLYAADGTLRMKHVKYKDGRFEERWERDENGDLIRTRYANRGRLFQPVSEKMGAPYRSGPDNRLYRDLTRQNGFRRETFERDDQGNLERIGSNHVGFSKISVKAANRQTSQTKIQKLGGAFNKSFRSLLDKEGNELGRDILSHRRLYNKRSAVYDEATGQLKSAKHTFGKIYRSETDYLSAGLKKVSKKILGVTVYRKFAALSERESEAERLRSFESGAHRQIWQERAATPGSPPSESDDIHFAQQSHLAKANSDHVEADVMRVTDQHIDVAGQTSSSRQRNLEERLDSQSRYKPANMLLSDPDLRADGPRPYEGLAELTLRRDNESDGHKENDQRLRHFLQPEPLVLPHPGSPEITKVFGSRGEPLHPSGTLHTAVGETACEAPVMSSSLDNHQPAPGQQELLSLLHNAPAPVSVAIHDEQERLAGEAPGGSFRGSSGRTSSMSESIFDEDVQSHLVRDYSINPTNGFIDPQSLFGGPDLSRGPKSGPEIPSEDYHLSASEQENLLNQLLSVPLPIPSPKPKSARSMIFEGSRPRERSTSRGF
# No constants are given. Whether binding was seen depends on the method and setting. For part of these data: In cells and extracts the contact can be indirect. Some binding calls cover weakened binding; strength is not graded here. For part of these data: Where a sequence is shown, tags or fusion partners need not be part of it.
# Key:
# [1] = target: T1, JAZ8-cYFP (Arabidopsis thaliana) (UniProt Q8LBM2); assay: split reporter; BiFC with split YFP; constructs under the 35S promoter transiently cotransformed into Arabidopsis leaf protoplasts; confocal microscopy, excitation 514 nm, emission 530-600 nm
# T1 sequence: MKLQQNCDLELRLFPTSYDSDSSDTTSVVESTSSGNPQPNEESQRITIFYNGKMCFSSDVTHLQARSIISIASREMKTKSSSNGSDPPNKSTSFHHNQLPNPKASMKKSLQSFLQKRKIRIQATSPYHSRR
# [2] = target: T2, maltose binding protein (MBP)-fused JAZ8 (Arabidopsis thaliana) (UniProt Q8LBM2); assay: pull-down; MBP pull-down: MBP-JAZ8 resin (or MBP resin) incubated with GST-VirE3, SDS-PAGE, immunoblot with anti-GST and anti-MBP antibody; both purified
# T2 sequence: T1 sequence
# [3] = target: JAZ8-ZIM (aa 13-101) fused to the binding domain (JAZ8-ZIM-pAS2.1) (Arabidopsis thaliana) (UniProt Q8LBM2); assay: two-hybrid; JAZ8 and its fragments in pAS2.1 (BD), VirE3 in pACT2 (AD), cotransformed into yeast strain PJ69-4A; growth on SD-LWH plates, 4 days at 28°C; repeated three times
# [4] = target: T3, full-length JAZ8 fused to the binding domain (JAZ8-pAS2.1) (Arabidopsis thaliana) (UniProt Q8LBM2); assay: as above
# T3 sequence: T1 sequence
# [5] = target: JAZ8CT (aa 101-127) fused to the binding domain (JAZ8CT-pAS2.1) (Arabidopsis thaliana) (UniProt Q8LBM2); assay: as above
# [6] = target: JAZ8NT (aa 1-101) fused to the binding domain (JAZ8NT-pAS2.1) (Arabidopsis thaliana) (UniProt Q8LBM2); assay: as above
substance,measurement,setting,value
VirE3-nYFP (from UniProt Q44445 1-672),binding,[1],binds
GST-tagged VirE3 (from UniProt Q44445 1-672),binding,[2],binds
full-length VirE3 fused to the activation domain (pACT2-VirE3) (from UniProt Q44445 1-672),binding,[3],binds
same,binding,[4],binds
same,binding,[5],no binding
same,binding,[6],binds
